# Measured values: the supplement of paper PMC4604168 (melanoma cell lines)
# This is one part of the list. Many values rest on one well or one pass, so single values are uncertain.
# Key:
# Assay in all cases: cell count relative to DMSO control; melanoma cells; higher = more viable cells
# Conditions in all cases: library dose: standard library concentration; 72 h
# G361 = tested on: G361
# IPC-298 = tested on: IPC-298
# IST-MEL1 = tested on: IST-MEL1
# LB2518-MEL = tested on: LB2518-MEL
# LOXIMVI = tested on: LOXIMVI
# MEL-HO = tested on: MEL-HO
# MZ2-MEL = tested on: MZ2-MEL
# MeWo = tested on: MeWo
# RPMI7951 = tested on: RPMI7951
# RVH-421 = tested on: RVH-421
# SkMel28 = tested on: SkMel28
# SkMel2 = tested on: SkMel2
# SkMel30 = tested on: SkMel30
# SkMel5 = tested on: SkMel5
# UACC257 = tested on: UACC257
# UACC62 = tested on: UACC62
# WM115 = tested on: WM115
# WM1716 = tested on: WM1716
# WM1745 = tested on: WM1745
# WM3526 = tested on: WM3526
# 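Further: cells treated in 1,536-well plates, then fixed and DAPI-stained, with nuclei counted from automated high-throughput microscope images.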
Compound,cell count (G361) [%],cell count (IPC-298) [%],cell count (IST-MEL1) [%],cell count (LB2518-MEL) [%],cell count (LOXIMVI) [%],cell count (MEL-HO) [%],cell count (MZ2-MEL) [%],cell count (MeWo) [%],cell count (RPMI7951) [%],cell count (RVH-421) [%],cell count (SkMel28) [%],cell count (SkMel2) [%],cell count (SkMel30) [%],cell count (SkMel5) [%],cell count (UACC257) [%],cell count (UACC62) [%],cell count (WM115) [%],cell count (WM1716) [%],cell count (WM1745) [%],cell count (WM3526) [%]
"CS(=O)(=O)CCNCc1ccc(-c2ccc3ncnc(Nc4ccc(OCc5cccc(F)c5)c(Cl)c4)c3c2)o1 [lapatinib] + O=C(O)c1ccc2c(c1)nc(Nc1cccc(Cl)c1)c1ccncc12 [CX4945] (first compound 4 µM, partner dose 2 µM)",22.1,57.5,67.7,87.3,58.4,46,50.5,76.4,24.5,62.8,60.4,74.4,50.9,55.8,81.5,47.5,71,81.9,50.2,46.3
"C[C@@H](Oc1cc(-c2cnn(C3CCNCC3)c2)cnc1N)c1c(Cl)ccc(F)c1Cl [Crizotinib] + CC(=O)c1c(C)c2cnc(Nc3ccc(N4CCNCC4)cn3)nc2n(C2CCCC2)c1=O [palbociclib] (first compound 1 µM, partner dose 0.2 µM)",65.6,64.7,65.2,59.2,112,78.8,84.9,46.8,53.3,71.8,27.6,53.5,44.6,47.4,66.3,47.9,34.7,28.5,57.6,35.8
"CS(=O)(=O)CCNCc1ccc(-c2ccc3ncnc(Nc4ccc(OCc5cccc(F)c5)c(Cl)c4)c3c2)o1 [lapatinib] + COCC[n+]1c2c(n(Cc3cnccn3)c1C)C(=O)c1ccccc1C2=O [YM155] (first compound 4 µM, partner dose 0.002 µM)",12.5,15.6,38.2,3.65,37.4,28.9,6.82,7.52,25.5,46.4,4.69,24.7,51.3,9.92,14.9,23.3,20.7,42.7,44.8,21.2
"C=CCNC1=C2C[C@@H](C)C[C@H](OC)[C@H](O)[C@@H](C)/C=C(\C)[C@H](OC(N)=O)[C@@H](OC)/C=C\C=C(/C)C(=O)NC(=CC1=O)C2=O [Tanespimycin] + C[C@]1(c2nc3c(C(N)=O)cccc3[nH]2)CCCN1 [Veliparib] (first compound 0.01 µM, partner dose 7 µM)",63,83.9,62,53.8,162,91.6,117,83.5,28.3,95.7,32.8,82.3,83.4,87.3,102,48.5,27.6,73.7,66.1,69.7
"CNC(=O)c1cc(Oc2ccc(NC(=O)Nc3ccc(Cl)c(C(F)(F)F)c3)cc2)ccn1 [sorafenib] + Cn1nnc2c(C(N)=O)ncn2c1=O [temozolomide] (first compound 2 µM, partner dose 10 µM)",97.2,95.7,77.9,89.8,116,84.3,106,76.5,85.6,89.5,33.3,86.3,74.2,95.6,87.8,57.4,72.7,60.5,107,80.7
"CN1CCN(c2ccc3nc(-c4c(N)c5c(F)cccc5[nH]c4=O)[nH]c3c2)CC1 [Dovitinib] + Cn1c(Nc2ccc(C(F)(F)F)cc2)nc2cc(Oc3ccnc(-c4ncc(C(F)(F)F)[nH]4)c3)ccc21 [CHIR265] (first compound 0.5 µM, partner dose 0.4 µM)",32.4,40.9,75.7,32.7,92.7,61.7,24.9,51.6,51.4,61.8,26.7,44,64.9,37.1,60.5,57.7,43.1,66.3,52,40.4
"C[C@@H](Oc1cc(-c2cnn(C3CCNCC3)c2)cnc1N)c1c(Cl)ccc(F)c1Cl [Crizotinib] + C=C(c1ccc(C(=O)O)cc1)c1cc2c(cc1C)C(C)(C)CCC2(C)C [Bexarotene] (first compound 1 µM, partner dose 10 µM)",73.1,64,74.6,76.5,106,105,84.3,73.8,93.2,95.7,70.6,69.7,83.2,67.8,85.7,64.6,69.6,76.8,65.9,72.7
"CNC(=O)c1cc(Oc2ccc(NC(=O)Nc3ccc(Cl)c(C(F)(F)F)c3)cc2)ccn1 [sorafenib] + C[C@@H]1CCN(C(=O)CC#N)C[C@@H]1N(C)c1ncnc2[nH]ccc12 [CP690550] (first compound 2 µM, partner dose 5 µM)",93.8,95,103,78.5,137,110,119,78.9,155,81,101,83.3,103,89.5,82.9,141,105,110,89.2,103
